Laboratory results: US11542275B2, “Substituted imidazolidin-2-one derivatives as PRMT5 inhibitors” (Aurigene Discovery Technologies Limited, priority 2018, dated 2023)

Target: PRMT5/MEP50 Complex (Homo sapiens (Human), UniProt O14744)
Assay: PRMT5 inhibition based on TR-FRET assay
Assay type: biochemical
Conditions: 32 nM PRMT5:MEP50 complex, 50 nM Histone-H4 peptide, 1 μM SAM, 90 minutes at room temperature
Description: Protein arginine methyltransferase 5 (PRMT5) is a type II arginine methyltransferase that catalyze mono- and symmetric demethylation on arginine residues of histone or non-histone proteins in presence of S-adenosylmethionine (AdoMet or SAM) a cofactor responsible for donating the methyl group. PRMT5 is reported to be overexpressed in several human cancers. To identify compounds that inhibit the PRMT5 and decrease its activity, a TR-FRET based assay has been established. Time-resolved fluorescence resonance energy transfer (TR-FRET) HTS assays are homogeneous proximity assays where the interaction of two dye-labeled binding partners is detected by the energy transfer between a donor and an acceptor dye, and the subsequent light emission by the acceptor dye. PRMT5 catalyzes Histone H4 peptide which is biotin tagged to the Lysine amino acid at carboxyl end, in presence of S-adenosyl-1-methionine (SAM) to methylate the peptide. The antibody specific to mono methylated H4 peptide (H4R3) with Ig conjugate binds to the methylated peptide, indirectly binding to the Europium lanthanide. […]
The compound dilutions were prepared as 7.5% DMSO stock solutions in assay buffer. […] The plates were then read on Victor-3 with Excitation at 340 nm and Emissions collected at 615 and 665 nm in TR-FRET protocol. […]

| SMILES | IC50 [nM] |
| --- | --- |
| CS(=O)(=O)N1CCC(c2ccc(CN3CCN(C[C@H](O)CN4CCc5ccccc5C4)C3=O)nc2)CC1 [Compound 43, (R)-1-(3-(3,4-dihydroisoquinolin-2(1H)-yl)-2-hydroxypropyl)-3-((5-(1-(methylsulfonyl)piperidin-4-yl)pyridin-2-yl)methyl)imidazolidin-2-one] | 10 |
| CCC(=O)N1CCC(c2ccc(CN3CCN(C[C@H](O)CN4CCc5ccccc5C4)C3=O)nc2)CC1 [Compound 44, (R)-1-(3-(3,4-dihydroisoquinolin-2(1H)-yl)-2-hydroxypropyl)-3-((5-(1-propionylpiperidin-4-yl)pyridin-2-yl)methyl)imidazolidin-2-one] | 11 |
